Laboratory results reported in paper PMC4336329 (PLoS ONE, 2015).
In all, about 310,000 compounds went through this assay and about 2,200 (0.71%) showed an effect of 50% or more. The effect is printed as a negative number. This is one part of the list.

What follows are compounds tested against human ether-à-go-go-related gene (hERG) potassium channel (human, UniProt Q12809) (assay: primary screen, population patch clamp on CHO cells stably expressing hERG).
human ether-à-go-go-related gene (hERG) potassium channel, sequence (Q12809 whole entry, looked up): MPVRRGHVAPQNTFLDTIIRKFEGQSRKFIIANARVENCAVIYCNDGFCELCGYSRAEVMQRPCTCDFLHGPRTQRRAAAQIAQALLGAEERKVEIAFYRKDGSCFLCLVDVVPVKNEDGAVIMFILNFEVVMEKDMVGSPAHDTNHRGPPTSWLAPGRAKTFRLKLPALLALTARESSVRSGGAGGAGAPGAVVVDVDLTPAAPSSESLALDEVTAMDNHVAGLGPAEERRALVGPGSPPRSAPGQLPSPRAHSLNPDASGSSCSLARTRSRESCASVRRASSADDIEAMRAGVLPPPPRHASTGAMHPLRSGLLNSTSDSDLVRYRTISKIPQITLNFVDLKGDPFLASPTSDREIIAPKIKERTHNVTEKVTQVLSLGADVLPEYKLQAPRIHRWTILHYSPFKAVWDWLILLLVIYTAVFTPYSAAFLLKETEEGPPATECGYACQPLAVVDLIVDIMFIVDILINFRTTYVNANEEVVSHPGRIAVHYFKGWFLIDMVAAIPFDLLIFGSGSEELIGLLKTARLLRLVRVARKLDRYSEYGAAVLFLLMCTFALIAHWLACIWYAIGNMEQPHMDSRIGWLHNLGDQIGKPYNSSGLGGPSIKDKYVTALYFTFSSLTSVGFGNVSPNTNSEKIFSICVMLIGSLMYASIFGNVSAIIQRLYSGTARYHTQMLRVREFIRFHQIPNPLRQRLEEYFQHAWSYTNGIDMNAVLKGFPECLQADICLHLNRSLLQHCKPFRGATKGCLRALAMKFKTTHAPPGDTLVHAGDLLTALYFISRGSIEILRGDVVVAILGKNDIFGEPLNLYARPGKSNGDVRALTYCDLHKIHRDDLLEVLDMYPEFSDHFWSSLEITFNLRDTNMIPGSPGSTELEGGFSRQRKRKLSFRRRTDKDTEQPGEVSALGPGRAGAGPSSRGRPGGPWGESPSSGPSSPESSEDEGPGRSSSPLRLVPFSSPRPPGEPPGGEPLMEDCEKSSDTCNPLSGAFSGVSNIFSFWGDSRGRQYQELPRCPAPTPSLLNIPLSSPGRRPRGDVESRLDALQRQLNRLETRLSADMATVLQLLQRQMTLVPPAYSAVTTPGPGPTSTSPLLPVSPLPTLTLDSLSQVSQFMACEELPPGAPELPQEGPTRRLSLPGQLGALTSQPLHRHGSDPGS

In order of falling “hERG current change (%, negative = inhibition) at 1uM” value:
1. Cl.Nc1ccc2c(c1)OC1(CCCC1)O2  30.3%
2. O=C(O)c1cccc([N+](=O)[O-])c1C(=O)Nc1nc2ccccc2s1  25.3%
3. CC(=O)Nc1ccc(C(=O)NCCc2ccccc2)cc1  19%
4. COc1ccc(Br)cc1C(=O)NC(=S)Nc1c(C)n(C)n(-c2ccccc2)c1=O  18.6%
5. Cc1cc(/C=C2\C(=O)NC(=O)N(c3cccc(F)c3)C2=O)c(C)n1-c1cc(C(=O)O)cc(C(=O)O)c1  18.1%
6. CCn1c(CC(=O)Nc2ccc(C)cc2)nnc1SCC(=O)Nc1nc(C)cs1  18%
7. O=C(c1ccc(F)cc1Cl)N1CCC2(CC1)OCCO2  18%
8. O=C(O)c1ccc2c(c1)C(=O)N(c1ccc(C(=O)OCC(=O)c3ccccc3)cc1)C2=O  16.2%
9. CCCn1cnc2sc(CC)cc2c1=O  16.1%
10. CCOc1ccccc1/C=N/Nc1cc(C)nc2ccc(C)cc12  15.7%
11. Cc1ccc(C(=O)NC(=S)Nc2ccc(-c3ccc(CO)o3)cc2)cc1  15.6%
12. CSc1ncccc1C(=O)Nc1ccncc1  15.5%
13. COCC1CCCCN1C(=O)c1ccc(OC)c(OC2CCN(C(C)C)CC2)c1 (centres unmarked)  15%
14. CC(c1ccccc1)n1cncc1C(=O)O (centres unmarked)  14.8%
15. O=C(CCN1C(=O)c2ccccc2C1=O)C1=NN[C@@H]2C(=O)N(c3cccc(Cl)c3)C(=O)[C@H]12  14.7%
16. COC(=O)C1=C(C)N(Cc2ccc(C)cc2)C(=O)/C1=C\c1ccc(O)c(OC)c1  14.6%
17. CCOC(=O)CCNC(=O)N1CCCC(N(C)CCc2ccc(OC)c(OC)c2)C1 (centres unmarked)  14.5%
18. O=C(O)CSc1nc2sc3c(c2c(=O)n1Cc1ccccc1)CCCCC3  14.4%
19. COC(=O)c1ccc(N=C2SCC(=O)N2C)cc1  14.3%
20. Cc1cc(C)cc(OCC(=O)NNC(=O)CCC(=O)NCc2ccccc2)c1  14.2%
21. O=C(c1ccc(-c2ccccc2)cc1)N1CCN(c2ccccc2)CC1  14.2%
22. Cc1cc(NC(=O)/C=C/c2ccccc2Cl)no1  14%
23. CC(CNS(=O)(=O)c1ccc2c(c1)NC(=O)CCS2)c1ccccc1 (centres unmarked)  14%
24. O=S(=O)(c1ccc(F)cc1)N1CCN(c2ncccn2)CC1  14%
25. CC1CN(C(=O)NCc2ccccc2)c2cc(Cl)ccc2O1 (centres unmarked)  13.9%
26. O=C(NC1CCCC1)c1ccc(COCC(F)(F)F)o1  13.7%
27. Cc1cc(NC(=O)CCN2C(=O)c3ccccc3C2=O)no1  13.6%
28. NC(=S)Nc1cc(Cl)cc(Cl)c1  13.3%
29. Cc1ccnc(NS(=O)(=O)c2cccs2)c1  12.9%
30. CCOC(=O)CCCCC(=O)c1[nH]c(=O)[nH]c1C[n+]1ccccc1.[Cl-]  12.9%
31. Cc1cccc(C)c1N1CCN(C(=O)N2CCOCC2)CC1  11.7%
32. CC1=C(C(=O)Nc2cc(-c3cccc(F)c3)[nH]n2)C2(CCCCC2)OC1=O  11.1%
33. CCN(CC(=O)NCc1ccccn1)S(=O)(=O)c1ccc(Cl)cc1  10.8%
34. Cc1cccc(C(=O)NNC(=O)c2ccccc2Br)c1  10.6%
35. CC(=O)Nc1ccccc1C(=O)C(=O)Nc1ccccc1  10.5%
36. Cc1ccc(-n2nnnc2-c2cnn(-c3cccc(F)c3)c2C(F)(F)F)cc1  10.5%
37. CC1(C)CC(=O)C2=C(C1)N=c1s/c(=C/c3ccc(F)c(F)c3)c(=O)n1C2c1ccc(F)cc1 (centres unmarked)  10.3%
38. CCOc1cc(C(=O)NCC(C)CN(C)C)cc(OCC)c1OCC (centres unmarked)  10.2%
39. CCOc1ccc(C(=O)NCC(=O)Nc2cc(C)ccn2)cc1OCC  9.69%
40. Cc1nnc(NC(=O)c2cc3n(n2)C(C(F)(F)F)CC(C2CC2)N3)s1 (centres unmarked)  9.46%
41. CCCCCCCCC(NC(=O)c1ccc(C#N)cc1)C(=O)NCCC (centres unmarked)  9.22%
42. CC(C)(C)C(=O)C(Cc1ccccc1Cl)n1cncn1 (centres unmarked)  9.01%
43. O=C1c2cnc3nc(SCc4cccc(Cl)c4)nn3c2CC2c3ccccc3CCN12 (centres unmarked)  8.92%
44. CC1CCN(C(=O)c2[nH]cnc2C(=O)N[C@@H](C)c2ccccc2)CC1  8.83%
45. CCCCN(C(=O)c1cc(OC)c(OC)c(OC)c1)C1=CC2CCC(C1)N2C.Cl (centres unmarked)  8.68%
46. CC(=O)N1CCCc2cc(S(=O)(=O)N3CCCC(C(=O)N4CCN(c5ccccc5)CC4)C3)ccc21 (centres unmarked)  8.52%
47. O=C(O)CSc1nc2ccccc2s1  8.45%
48. COc1ccc(NC(=O)/C=C/c2cc(OC)c(OC)c(OC)c2)cn1  8.12%
49. CCOCCCNC(=O)C(C)NS(=O)(=O)c1ccc(C)cc1 (centres unmarked)  7.82%
50. COCCCN1C(=O)C(O)=C(C(=O)c2ccc(C)o2)C1c1cccc(Br)c1 (centres unmarked)  7.75%
51. O=S(=O)(Nc1ncnc2sc3c(c12)CCC3)c1ccc2ccccc2c1  7.64%
52. CCN1CCN(c2ncnc3sc4c(c23)CCC(C)C4)CC1 (centres unmarked)  7.63%
53. CC1(c2ccc(Cl)cc2)NC(=O)N(CC(=O)NCc2cccs2)C1=O (centres unmarked)  7.48%
54. COc1cccc(N2C(=O)NC(=O)/C(=C/c3ccc([N+](=O)[O-])s3)C2=O)c1  7.41%
55. Cc1cc(C(=O)O)ccc1-n1c(C)cc(C=C2C(=O)c3ccccc3C2=O)c1C  7.4%
56. CC(=N\Nc1ccccc1)/C(=N/O)C(=O)Nc1ccccc1  7.01%
57. CCCC(C)NC(=O)C1CC(=O)N(CCc2ccc(F)cc2)C1 (centres unmarked)  6.95%
58. CN1C(=O)c2ccccc2C(O)c2ccccc21 (centres unmarked)  6.34%
59. COc1cccc(C(=O)NCCCNC(=O)c2cccnc2)c1  6.09%
60. CC(C)=CCC(C)(C)C1OCCN1C(=O)c1ccccc1 (centres unmarked)  6.09%
61. O=S(=O)(Nc1ccc(O)c(Sc2nc3ccccc3s2)c1)c1ccc(F)cc1  6.04%
62. CC(=O)c1cc(F)c(N2CCCC2)cc1C  5.68%
63. CCC(C)(C)NC(=O)C(c1cccc(OC)c1OC)N(Cc1ccccc1)C(=O)CCC(=O)Nc1cc(C)on1 (centres unmarked)  5.61%
64. CC(/C=C/c1ccccc1)=N\NC(=O)c1ccc2c(c1)OCCO2  5.5%
65. Clc1ccccc1/C=C/c1ccnc2ccccc12  5.08%
66. CCOc1cc2[nH]c(=O)n(CCC(=O)NCc3ccc(OC)cc3)c(=O)c2cc1OCC  4.98%
67. CCOc1ccc2nc(NC(=O)CSc3ccccc3)sc2c1  4.91%
68. COc1ccc(CC(=O)NC(C)c2nnc(SCC(=O)c3ccc(OC)cc3)n2C)cc1 (centres unmarked)  4.87%
69. COc1ccc(N2CCN(C(=O)CCCn3nnnc3CN3CCOCC3)C(C)C2)cc1 (centres unmarked)  4.32%
70. O=C(NNc1ccc([N+](=O)[O-])cc1)c1ccccc1Cl  3.18%
71. O=C(N/N=C/C=C/c1ccccc1)c1cccnc1  2.91%
72. Brc1ccc(CSc2nnc(-c3ccccn3)n2Cc2ccco2)cc1  2.31%
73. CCC(=O)Nc1ccc(S(=O)(=O)N2CCc3ccccc32)cc1  1.9%
74. O=C(Nc1cccc(Cl)c1)N1CCC(CO)(CCOc2ccccc2)CC1  1.45%
75. CCN(CC)CCn1c(=O)n(-c2ccc(Cl)cc2)c(=O)c2c3c(sc21)CN(C)CC3  1.4%
76. CN1C(=O)/C(=C2/C=CC=CN2C)OC1=S  1.15%
77. N#Cc1ccsc1NC(=O)C1CC(=O)N(Cc2ccccc2)C1 (centres unmarked)  0.752%
78. CCOc1ccc(S(=O)(=O)N2CCCCC2)cc1NC(=O)CSCc1c(C)noc1C  0.116%
79. CC(=O)c1ccccc1OCCOCCOc1ccccc1C(C)=O  -0.791%
80. CCn1c(Cc2ccccc2)nnc1SCC(=O)Nc1ccc2c(c1)OCCO2  -2.99%
81. CCC(=O)N1CCc2cc(S(=O)(=O)NC(C(=O)N3CCc4ccccc4C3)C(C)C)ccc21 (centres unmarked)  -4.26%
82. Cc1ccc(C(C)C)c(OCCCn2ccnc2C)c1.O=C(O)C(=O)O  -9.3%
83. COc1ccc(C(=O)NCc2nnc(SCC(=O)NO)n2Cc2ccccc2)cc1  -9.73%
84. CCOC(=O)C1CCCN(C(=O)C2CCN(S(=O)(=O)c3cccs3)CC2)C1 (centres unmarked)  -11.3%
85. COC(=O)Oc1ccc(/C=N/NC(=O)CSCc2ccc(Cl)cc2)cc1OC  -13%
86. Cc1nn(Cc2ccccc2)c(C)c1C(=O)N1CCN(CC(=O)Nc2ccccc2Cl)CC1  -13.4%
87. CCN(CC)CCn1c2c(c(SCC(=O)Nc3ccc(C(C)C)cc3)nc1=O)CCCC2  -16.5%
88. O=C(NCC(O)c1ccc([N+](=O)[O-])cc1)c1cccc(S(=O)(=O)N2CCCC2)c1 (centres unmarked)  -18.6%
89. CCCN(CCC)CCCNc1ccc2nnc(-c3ccc(F)cc3)n2n1  -28.7%
